Hit rate of the full screen: of about 310,000 compounds, about 14,000 (4.5%) showed an effect of 50% or more. Effects have a minus sign here. This is one part of the list. *1 amine or outer side, *2 acyl side, *3 side chain or, on linkers, in order; H or OH if unused. Where a SMILES comes first, the peptide text is derived from it. [ ]: non-standard residue; d: D form. ξ: configuration not given here. ξR = N=C(N)NCCCC(N)C(=O)O; ξF = NC(Cc1ccccc1)C(=O)O; CO = O=C([*:1])[*:2]
biological target: human ether-à-go-go-related gene (hERG) potassium channel (human, UniProt Q12809); experiment: primary screen, population patch clamp on CHO cells stably expressing hERG
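Note: peak tail current of the secondary pulse compared with the same well before compound.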

human ether-à-go-go-related gene (hERG) potassium channel, sequence (Q12809 whole entry, looked up): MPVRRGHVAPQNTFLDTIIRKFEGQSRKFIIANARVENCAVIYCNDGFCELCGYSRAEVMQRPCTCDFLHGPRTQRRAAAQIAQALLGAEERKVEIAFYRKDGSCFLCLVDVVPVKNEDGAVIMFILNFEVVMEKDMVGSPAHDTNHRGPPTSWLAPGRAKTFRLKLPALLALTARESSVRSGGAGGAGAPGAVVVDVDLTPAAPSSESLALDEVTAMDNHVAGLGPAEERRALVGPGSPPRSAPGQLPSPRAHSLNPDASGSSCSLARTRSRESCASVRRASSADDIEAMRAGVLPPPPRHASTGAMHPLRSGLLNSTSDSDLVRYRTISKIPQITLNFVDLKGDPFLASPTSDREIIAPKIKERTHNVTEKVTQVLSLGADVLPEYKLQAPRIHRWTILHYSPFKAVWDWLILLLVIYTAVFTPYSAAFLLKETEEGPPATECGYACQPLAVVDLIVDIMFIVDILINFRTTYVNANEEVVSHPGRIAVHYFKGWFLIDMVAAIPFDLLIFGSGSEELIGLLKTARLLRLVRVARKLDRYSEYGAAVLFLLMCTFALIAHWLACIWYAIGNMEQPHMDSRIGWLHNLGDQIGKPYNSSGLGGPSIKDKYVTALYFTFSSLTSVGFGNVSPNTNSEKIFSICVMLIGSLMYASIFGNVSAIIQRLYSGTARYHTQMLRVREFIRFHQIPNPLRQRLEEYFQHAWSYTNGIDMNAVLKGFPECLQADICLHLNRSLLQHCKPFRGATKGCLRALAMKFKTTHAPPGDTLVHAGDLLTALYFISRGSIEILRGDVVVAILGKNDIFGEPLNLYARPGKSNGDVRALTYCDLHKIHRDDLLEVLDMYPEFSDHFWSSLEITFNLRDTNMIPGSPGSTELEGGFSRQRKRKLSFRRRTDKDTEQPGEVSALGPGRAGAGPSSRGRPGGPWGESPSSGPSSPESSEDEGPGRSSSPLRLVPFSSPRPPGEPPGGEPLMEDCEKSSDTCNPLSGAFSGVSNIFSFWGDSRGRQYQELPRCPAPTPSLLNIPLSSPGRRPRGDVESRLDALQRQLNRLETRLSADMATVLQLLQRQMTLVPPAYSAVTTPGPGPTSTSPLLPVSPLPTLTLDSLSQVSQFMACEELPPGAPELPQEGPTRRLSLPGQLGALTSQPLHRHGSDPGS

Compound	hERG current change (%, negative = inhibition) at 10uM [%]
CCCCN1CC(=O)N2[C@H](c3ccc(Cl)cc3)[C@@H]3C(=O)N(CC)C(=O)[C@@H]3[C@]2(Cc2ccccc2)C1=O	-22.8
CC(C)[C@H](NC(=O)[C@H](CCCN=C(N)N)NC(=O)NC(Cc1ccccc1)C(=O)O)C(=O)NC(C=O)CCCN=C(N)N (stereo partly drawn) ({ξF-CO}-Arg-Val-[ξR]-aldehyde)	13.5
CCOC(=O)N1CCC(NC(=O)c2cc3c(C)nc4ccccc4c3o2)CC1	-21.9
CC1(C)CC(=O)C2=C(C1)NC(=S)C(C#N)C21CCCCC1 (centres unmarked)	13.8
Cc1ccc2c(C)c(C(=O)N3CCCCC3CO)oc2c1C (centres unmarked)	13.2
COc1cc(/C=N\Nc2nc3ccccc3o2)cc(OC)c1OC	4.65
NNC(=O)c1oc2nc(-c3ccco3)cc(-c3ccco3)c2c1N	-12.8
CCOC(=O)N1CCN(C(=S)NC(=O)c2c(-c3c(Cl)cccc3Cl)noc2C)CC1	-8.9
COc1ccc(-c2cc(C(=O)Nc3ccc(S(=O)(=O)Nc4ncccn4)cc3)c3ccccc3n2)cc1	5.87
O=C(c1cc([N+](=O)[O-])cc([N+](=O)[O-])c1)N1CCN(C(=O)c2ccco2)CC1	-65.3
CCN(CC(=O)Nc1c(F)cccc1F)C(=O)/C=C/c1ccc(Br)s1	-27
CCOC(=O)C(C)(C)N(Cc1cccc(C)c1)S(=O)(=O)c1cccc([N+](=O)[O-])c1	0.203
NC(=O)c1cc(NC(=O)c2cc(Br)c(Br)s2)cc(C(N)=O)c1	9.04
Cc1ccc(N)cc1CN1CCCC1=O	2.15
N#Cc1c(Cl)cccc1Oc1ccc(S(=O)(=O)Nc2ccccc2)cc1	3.79
CC(C)CC1Nc2ccc(C(=O)NCc3ccc4c(c3)OCO4)cc2NC1=O (centres unmarked)	-5.68
Cc1ccccc1/C=N/N=C1/NC(=O)CCS1	-0.482
CCc1cc(=O)oc2c3c(cc(OCC(=O)NCCC(=O)O)c12)OC(C)(C)CC3	20.2
N#CC1(C#N)CC(C=O)=C(N)C1(C#N)CC(=O)C12CC3CC(CC(C3)C1)C2 (centres unmarked)	16
Cc1cc(C)c2nc(NCc3ccccc3O)sc2c1	9.24
Cc1ccc(-c2nc(C)sc2CC(=O)O)cc1	14.7
CCc1nnc(NC(=O)c2cccc(S(=O)(=O)N3CCc4ccccc43)c2)s1	-9.98

Compound	hERG current change (%, negative = inhibition) at 10uM [%]
COc1cc(C(c2c(C)[nH][nH]c2=O)c2c(C)[nH][nH]c2=O)ccc1OS(=O)(=O)c1ccc(C)cc1	17.3
C=CCOC(=O)C1=C[C@H](c2ccccc2)[C@@H](CCCO)[C@H](OCC)O1	-0.205
C(=N\n1cnnc1)/c1ccc(N2CCOCC2)s1	1.12
CN(C)/C=C(\c1cnc(Cl)s1)S(=O)(=O)c1ccccc1	27.8
CCCCc1ccc(CC(=O)Nc2cc(S(=O)(=O)N3CCOCC3)ccc2O)cc1	3.27
CN1C(=O)CSC1=Nc1cccc(C(=O)O)c1	11.5
CC(C)N(CCCNC(=O)C1CCN(C(=O)c2cc3sccc3n2C)CC1)Cc1ccccc1	-23.2
CC(C)c1ccccc1NC(=O)c1cnccn1	-4.95
N#Cc1cccc(NC(=O)CSc2n[nH]c(=O)[nH]c2=O)c1	9.07
O=C(CSc1cccc2cccc(Cl)c12)OCC(=O)N1CCN(C(=O)c2ccco2)CC1	-69.2
CC(=O)N(C(C)=O)c1nc2nc(C)cc(C)n2n1	-42.3
O=C(Cc1cccc(C(F)(F)F)c1)NCc1cccc(Cl)c1	-8.74
Cc1ccc(-n2nc3c(=O)n(CC(=O)NCCc4ccccc4C)nc(C)c3c2C)cc1	-0.158
CSCc1c(C(=O)Nc2ccccc2N2CCOCC2)oc2ccccc12	6.42
CCN(CC)CCOC(=O)c1cccc(Br)c1.Cl	-40.6
COc1ccccc1N1CCN(C(=O)c2ccc3c(=O)n(Cc4ccc5c(c4)OCO5)c(=O)[nH]c3c2)CC1	7.52
COc1ccc(NC(=S)N2CCC(c3ccccc3)C2)cc1 (centres unmarked)	-3.39
CCCC(=O)Nc1cc2c3c(c1)C(C)C(=O)N3CCC2 (centres unmarked)	18.5
O=C(CSc1ccc(-c2cccc([N+](=O)[O-])c2)nn1)NC1CCCC1	-4.51
Cc1ccc(C)c(OCC(=O)Nc2cccc(S(=O)(=O)NC3=NCCCCC3)c2)c1	-6.6
NC(=O)CN1C(=O)C(O)(CC(=O)/C=C\c2ccc3c(c2)OCO3)c2ccccc21 (centres unmarked)	19.5
Cc1cccc(Cn2c(C(C)(C)C)cc3cccnc32)c1	-46.8

Compound	hERG current change (%, negative = inhibition) at 10uM [%]
CN(C(=O)COC(=O)c1cc([N+](=O)[O-])ccc1Sc1ccccc1)C1CCS(=O)(=O)C1 (centres unmarked)	-9.16
C#CCn1c(O)c(N=NC(=O)CNC(=O)c2cccnc2)c2ccccc21	-12.3
CCOC(=O)/C(C#N)=C/C=C1/C=CC=CN1C	3.01
COc1ccc(-n2nnnc2-c2cccc(OC)c2)cc1	-13.2
Cc1c(NC(=O)CN2C(=O)c3cccc4cccc2c34)c(=O)n(-c2ccccc2)n1C	4.55
COc1ccc(C(=O)N2CCc3c([nH]c4ccccc34)C2C(F)(F)F)cc1 (centres unmarked)	2.33
CS(=O)(=O)N(CC(=O)N1CCCC1)c1cc(C(F)(F)F)ccc1Cl	-7.58
CCOC(=O)c1c(NC(=S)Nc2cccnc2)sc(C)c1C	11.6
Cc1ccc(NC(=O)CCSc2nnc(C)s2)cc1	10.2
Cn1cc(Cl)c(C(=O)Nc2nccs2)n1	7.94
COc1cccc(/C=N/NC(=O)c2cccs2)c1	-6.47
Cc1nc(Nc2ccncc2)c2oc3ccccc3c2n1	-18.7
CCOC(=O)C1CCN(C(=O)c2cnn3c(C)cc(C)nc23)CC1	3.65
CSc1ccc(C2c3[nH]c4ccccc4c3CCN2C(=O)c2cc(C)n(C)n2)cc1 (centres unmarked)	32.6
Cc1ccc(C)c(C(=O)Nc2nc3ccccc3[nH]2)c1	25.9
C=CCC1c2cccc(C(=O)OC)c2C(=O)N1c1ccccc1 (centres unmarked)	10.9
Cc1ccc(C(=O)NCc2ccncc2)cc1S(=O)(=O)N1CCOCC1	-2.64
COc1cc(CCC(=O)Nc2nccs2)cc(OC)c1OC	3.1
O=C(c1ccncc1)N1N=C(c2ccc(Br)cc2)CC1c1ccccc1O (centres unmarked)	0.25
COC(=O)C1=C(C)Nc2nnnn2C1c1cc(OC)ccc1OC (centres unmarked)	12.4
CCOC(=O)c1c(C)c(C(=O)NCC2CCCO2)c(C)n1CC (centres unmarked)	-4.06
O=c1ccc(-c2ccccc2)nn1Cc1ccc(Cl)cc1	2.52

Compound	hERG current change (%, negative = inhibition) at 10uM [%]
CN(c1ccccc1)c1nc(N)c([N+](=O)[O-])c(N2CCCCCC2)n1	9.37
Cc1cc(C)c(S(=O)(=O)N2CCN(CCO)CC2)c(C)c1	10.9
CCCc1cc(=O)oc2c(C)c(OCC(=O)N3C[C@H]4C[C@@H](C3)c3cccc(=O)n3C4)ccc12	-23.9
CC(C)Cc1cc(C(=O)Nc2c(F)cc(F)cc2Br)no1	-46.2
CC(C)C(=O)Nc1sc2c(c1C#N)CCCCC2	9.53
CCOC(=O)Cn1ccc(O)c(Cc2ccc(Cl)cc2Cl)c1=O	-3.25
C[C@@H]1C[C@H]2[C@@H]3C[C@H](F)C4=CC(=O)C=C[C@]4(C)[C@@]3(Cl)[C@@H](O)C[C@]2(C)[C@H]1C(=O)COC(=O)C(C)(C)C	16.9
COc1ccc(NC(=O)COc2ccccc2Cc2ccccc2)cn1	2.75
COc1ccc(NC(=O)/C(C#N)=C/c2ccc[nH]2)c(OC)c1	4.02
COc1ccc(/C=C2\CCCc3c2nc2ccc(C)cc2c3C(=O)O)cc1O	19.6
CCc1nn(CC(=O)NCCCN2CCN(C)CC2)c(=O)c2cc3occc3n12	7.67
O=C1C2CC=CCC2C(=O)N1c1ccc(NCCc2ccccc2)c([N+](=O)[O-])c1 (centres unmarked)	23.8
Cc1c(C(=O)Nc2ccc(-c3nnc4n3CCCCC4)cc2)oc2ccc(Br)cc12	1.78
COc1ccc(N2CC(C(=O)N3CCC4(CC3)CC(=O)c3ccccc3O4)CC2=O)cc1 (centres unmarked)	-78.1
O=S(=O)(Nc1ccc(-c2ccc3nncn3n2)cc1)c1ccc(Cl)s1	-19.2
O=C(O)CCN=C1CCCc2ccccc2N1	7.26
COc1cc(C)nc(-c2csc(C)n2)n1	8.2
CC(Cc1ccccc1)N1C(=O)c2cccc([N+](=O)[O-])c2C1=O (centres unmarked)	4.75
C=CCN(CC=C)CC(=O)Nc1cccc(Oc2cnccn2)c1	10.6
COc1ccccc1C(=O)NC(=O)COC(=O)C1(C)CC1(Cl)Cl (centres unmarked)	4.86

From paper PMC4336329 (PLoS ONE, 2015)
